The target of one assay is T1, Flag-ERRα WT (UniProt P11474).
T1 sequence: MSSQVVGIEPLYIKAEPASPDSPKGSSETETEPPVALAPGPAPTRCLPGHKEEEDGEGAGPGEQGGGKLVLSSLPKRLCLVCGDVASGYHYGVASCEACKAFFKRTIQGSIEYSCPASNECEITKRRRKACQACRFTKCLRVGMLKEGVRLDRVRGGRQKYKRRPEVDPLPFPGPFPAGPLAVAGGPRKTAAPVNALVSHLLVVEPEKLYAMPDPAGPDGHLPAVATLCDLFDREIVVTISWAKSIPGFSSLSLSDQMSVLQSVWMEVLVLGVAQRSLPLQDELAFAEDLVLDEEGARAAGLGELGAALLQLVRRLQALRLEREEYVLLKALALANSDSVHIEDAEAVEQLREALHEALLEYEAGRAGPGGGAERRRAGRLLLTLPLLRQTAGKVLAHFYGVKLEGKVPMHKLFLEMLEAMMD
Briefly: co-IP; co-IP and reciprocal co-IP from lysates of 293T cells transiently co-expressing V5-FBXW7 and Flag-ERRα WT or 3SA mutant (Fig. 4d); buffer K with 0.3% CHAPS, protein A Dynabeads.

By UniProt entry, the sequences of proteins in these tests, tags left out. Where a name states a change or a piece, a line headed by the entry shows the natural chain unless it says otherwise.
UniProt Q969H0: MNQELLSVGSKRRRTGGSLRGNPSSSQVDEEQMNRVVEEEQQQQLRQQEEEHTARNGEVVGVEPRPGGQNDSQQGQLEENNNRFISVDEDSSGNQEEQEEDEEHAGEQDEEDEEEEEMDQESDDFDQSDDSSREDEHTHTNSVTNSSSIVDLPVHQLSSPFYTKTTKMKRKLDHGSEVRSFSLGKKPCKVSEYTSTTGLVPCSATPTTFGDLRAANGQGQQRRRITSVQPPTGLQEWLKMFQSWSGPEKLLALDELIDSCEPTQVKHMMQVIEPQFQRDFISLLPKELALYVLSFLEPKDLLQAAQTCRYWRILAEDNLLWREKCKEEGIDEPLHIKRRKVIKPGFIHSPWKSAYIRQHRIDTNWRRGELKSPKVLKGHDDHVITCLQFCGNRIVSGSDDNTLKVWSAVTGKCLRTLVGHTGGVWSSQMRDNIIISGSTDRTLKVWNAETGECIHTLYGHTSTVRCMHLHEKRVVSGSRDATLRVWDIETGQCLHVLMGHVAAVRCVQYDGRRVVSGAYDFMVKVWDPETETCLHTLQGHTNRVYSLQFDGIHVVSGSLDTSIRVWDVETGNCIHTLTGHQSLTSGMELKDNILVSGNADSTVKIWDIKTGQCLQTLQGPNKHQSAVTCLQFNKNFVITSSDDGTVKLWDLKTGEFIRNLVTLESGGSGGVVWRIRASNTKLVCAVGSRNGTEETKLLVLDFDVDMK

Assay [1] addresses T2, ERRα (co-IP with the 6 E3 candidates, Supplementary Fig. 4e) (UniProt P11474).
T2 sequence: T1 sequence
Put plainly: co-IP; the 6 E3 candidates and ERRα (Supplementary Fig. 4e); cells and constructs not shown.

The target of assay [2] is T3, nuclear receptor ERRα (endogenous, HepG2) (human (endogenous in HepG2)) (UniProt P11474).
T3 sequence: T1 sequence
Briefly: co-IP; endogenous ERRα and FBXW7 in GSK3β-silenced HepG2 cells treated with MG132 (Fig. 4h).

Assay [3] has as its target T3, nuclear receptor ERRα (endogenous, HepG2) (human (endogenous in HepG2)). Briefly: co-IP; endogenous ERRα and FBXW7 in HepG2 cells treated with MG132 (Fig. 4c; control cells of Fig. 4h); lysates in buffer K with 0.3% CHAPS, protein A Dynabeads pre-bound with antibody, washed with PBS-T, immunoblot. (In general: In western blotting, separated proteins are transferred to a membrane and probed.)

Assay [4] concerns the target T4, ERRα (in HEK293T cells transfected with HA-GSK3β WT or CA mutant, Fig. 4i) (UniProt P11474).
T4 sequence: T1 sequence
Briefly: co-IP; FBXW7 and ERRα in HEK293T cells transiently transfected with HA-GSK3β WT or CA (S9A) mutant, treated with MG132 prior to collection (Fig. 4i).

The target in another assay is V5-FBXW7 (UniProt Q969H0). Put plainly: co-IP; co-IP and reciprocal co-IP from lysates of 293T cells transiently co-expressing V5-FBXW7 and Flag-ERRα WT or 3SA mutant (Fig. 4d); buffer K with 0.3% CHAPS, protein A Dynabeads.

No constants are given. Whether binding was seen depends on the method and setting. In cells and extracts the contact can be indirect. Some results given as binding are weak or reduced against the parent protein; the word gives no strength. For some of these results: Sequences can lack the tags named with a protein.

V5-FBXW7 (from UniProt Q969H0 1-707): the binding entry (with Flag-ERRα WT; in assay [1]) was “binds” throughout.

As to “E3 ligase FBXW7 (endogenous, HepG2) (from UniProt Q969H0 1-707)”, the binding result in assay [2] is given as “no binding (condition: in GSK3β-silenced HepG2 cells)”; in assay [3], “binds”.

With “FBXW7 (in HEK293T cells transfected with HA-GSK3β WT or CA mutant, Fig. 4i) (from UniProt Q969H0 1-707)”, the binding result in assay [4] was “binds”.

B1: E3 ligase FBXO11 (protein, UniProt Q86XK2 1-927)
chain: MNSVRAANRRPRRVSRPRPVQQQQQQPPQQPPPQPPQQQPPQQQPPPPPQQQQQQQPPPPPPPPPPLPQERNNVGERDDDVPADMVAEESGPGAQNSPYQLRRKTLLPKRTACPTKNSMEGASTSTTENFGHRAKRARVSGKSQDLSAAPAEQYLQEKLPDEVVLKIFSYLLEQDLCRAACVCKRFSELANDPILWKRLYMEVFEYTRPMMHPEPGKFYQINPEEYEHPNPWKESFQQLYKGAHVKPGFAEHFYSNPARYKGRENMLYYDTIEDALGGVQEAHFDGLIFVHSGIYTDEWIYIESPITMIGAAPGKVADKVIIENTRDSTFVFMEGSEDAYVGYMTIRFNPDDKSAQHHNAHHCLEITVNCSPIIDHCIIRSTCTVGSAVCVSGQGACPTIKHCNISDCENVGLYITDHAQGIYEDNEISNNALAGIWVKNHGNPIIRRNHIHHGRDVGVFTFDHGMGYFESCNIHRNRIAGFEVKAYANPTVVRCEIHHGQTGGIYVHEKGRGQFIENKIYANNFAGVWITSNSDPTIRGNSIFNGNQGGVYIFGDGRGLIEGNDIYGNALAGIQIRTNSCPIVRHNKIHDGQHGGIYVHEKGQGVIEENEVYSNTLAGVWVTTGSTPVLRRNRIHSGKQVGVYFYDNGHGVLEDNDIYNHMYSGVQIRTGSNPKIRRNKIWGGQNGGILVYNSGLGCIEDNEIFDNAMAGVWIKTDSNPTLRRNKIHDGRDGGICIFNGGRGLLEENDIFRNAQAGVLISTNSHPILRKNRIFDGFAAGIEITNHATATLEGNQIFNNRFGGLFLASGVNVTMKDNKIMNNQDAIEKAVSRGQCLYKISSYTSYPMHDFYRCHTCNTTDRNAICVNCIKKCHQGHDVEFIRHDRFFCDCGAGTLSNPCTLAGEPTHDTDTLYDSAPPIESNTLQHN
As to B1, the binding entry in assay [1] was “binds”.

B2: Flag-ERRα WT (protein, UniProt P11474 1-423)
chain: T1 sequence
Turning to B2, the binding entry with V5-FBXW7 is “binds”.
